# Laboratory results published in PubChem BioAssay AID651820 (National Center for Advancing Translational Sciences (NCATS), 2012).
# The whole screen tested about 340,000 compounds, of which about 12,000 (3.5%) were called active. Inconclusive means that the source gave no clear call. Such entries were picked first, then a sample of the others. Calls come from the whole dose curve; as a rule, active = well fitted inhibition curve with a large enough effect; inconclusive = small, poorly fitted or top-dose-only effect, or another doubt; inactive = no such curve, though single readings can be large or run the other way. Potencies of inconclusive entries are left out as doubtful fits.
# Assay: qHTS Assay for Inhibitors of Hepatitis C Virus (HCV)
# Conditions: Huh7.5.1 HCVcc-Cre (HCVcc is cell-culture hepatitis C virus) infection, luciferase reporter, 44 h; activity change, negative = inhibition: at 41.8 µM (top of the series) unless noted
# How it was run: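 Cells (1,000/well) were plated 4 h before compound, then infected with HCVcc-Cre virus (~0.5 moi). After 44 h further culture, infection was read as luciferase luminescence following a 15 min substrate incubation at room temperature.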
# % is set by controls: 0 for no effect and ±100 for the full control effect; potency is the fitted concentration of half-maximal effect; tags give direction and shape of the fitted curve.
Compound,"activity change, negative = inhibition",Potency
Cc1cc(C)n(-c2cc(N3CCOCC3)ncn2)n1,inactive: -5.09%,–
O=C(Nc1cccc(-c2csc(Nc3ccc(Cl)cc3)n2)c1)c1cccc(C(F)(F)F)c1,–,active: 3.16 µM
Cc1ccc(N2C(=O)CS/C2=C(\C(Cl)=C(Cl)Cl)[N+](=O)[O-])cc1,inactive: -17.9%,–
O=C(CCn1c(=S)[nH]c2cc3c(cc2c1=O)OCO3)NCc1cccc(Cl)c1,inactive: -28.4%,–
COc1cc(/C=N/N=C(/N)c2nonc2N)cc(Br)c1OCc1cccc(C)c1,–,"inconclusive [inhibitor, partial curve]"
Cc1onc(-c2c(F)cccc2Cl)c1-c1nnc(-c2ccc(C(F)(F)F)cc2)o1,inactive: -41.6%,–
O=C(c1ccco1)N1CCN(c2ccc([N+](=O)[O-])cc2Cl)CC1,–,"inconclusive [inhibitor, single point]"
O=C(N/N=C\c1c(O)ccc2ccccc12)c1ccc(S(=O)(=O)N2CCCCC2)cc1,–,active: 5.01 µM
Cc1ccc2cc(NC(=O)c3ccccc3C)ccc2n1,inactive: -5.49%,–
Oc1cccc(/C=N/Nc2cccc3cccnc23)c1,–,"inconclusive [inhibitor, partial curve]"
Cc1cc(C(=O)Nc2cccnc2)no1,inactive: -4.94%,–
CCc1ccc(-c2nn(-c3ccccc3)cc2C2SCC(=O)N2Cc2ccco2)cc1 (configuration not stated),–,"inconclusive [inhibitor, single point]"
O=C(CNc1cc(S(=O)(=O)N2CCOCC2)ccc1N1CCCC1)Nc1ccc(Cl)cc1,inactive: -25.8%,–
CCOCCCNCc1cccc(OCc2ccc(F)cc2)c1,–,"inconclusive [inhibitor, single point]"
COc1ccccc1NC(=O)c1cnc2c(-c3ccccc3)c(C)nn2c1C,–,"inconclusive [inhibitor, single point]"
CCN(CC)S(=O)(=O)c1cc(C(=O)Nc2cccnc2Cl)ccc1Cl,–,"inconclusive [inhibitor, single point]"
CCN(CC)C(c1ccc(C)cc1)c1nnnn1C1CCCCC1 (configuration not stated),–,active: 35.5 µM
Cc1nn(C)cc1/C=N\NC(=O)c1ccc2c(c1)c(C)c(C)n2Cc1ccccc1,–,"inconclusive [inhibitor, single point]"
NC(N)=N/N=C/c1ccc(OCc2ccccc2)c(OCc2ccccc2)c1,–,"inconclusive [inhibitor, single point]"
CCc1ccc(-c2cc(C)no2)cc1S(=O)(=O)N1CCOc2ccc(C)cc21,–,"inconclusive [inhibitor, partial curve]"
COc1ccc(S(=O)(=O)Nc2cc3c4c(c2)CC(=O)N4CCC3)cc1,inactive: -15.3% [at 8.37 µM],–
CCn1nc(NC(=O)c2ccco2)c2cc3cc(C)ccc3nc21,–,"inconclusive [inhibitor, single point]"
CCOC(=O)/C(=N\Nc1ccc(Cl)cc1)c1csc(Nc2ccccc2)n1,–,"inconclusive [inhibitor, partial curve]"
CC(=O)c1ccc(NC(=O)C2CCN(S(=O)(=O)c3ccc4c(c3)N(C(C)=O)CCO4)CC2)cc1,inactive: -1.38%,–

Compound,"activity change, negative = inhibition",Potency
CC1C(=O)N2CCCc3cc(S(=O)(=O)NCc4ccccc4Cl)cc1c32 (configuration not stated),inactive: -24.3%,–
C#C[C@]1(O)CC[C@H]2[C@@H]3CCc4cc(O)ccc4[C@H]3CC[C@@]21C,–,"inconclusive [inhibitor, single point]"
Cc1scc(C(=O)N/N=C/c2ccc(OCC(C)C)cc2)c1C,–,"inconclusive [inhibitor, single point]"
CCSc1cc(C)nc2c(-c3ccccc3)cnn12,–,active: 10 µM
O=C(COC(=O)c1cc(S(=O)(=O)N2CCOCC2)c(Cl)cc1Cl)c1ccc[nH]1,inactive: -9.15%,–
O=c1cc(O)n(Cc2ccc(F)cc2)c(=O)[nH]1,inactive: 6.52%,–
Cc1cc(/C=N/NC(N)=O)c(C)n1C1CCCCC1,–,"inconclusive [inhibitor, single point]"
Cc1ccc(F)cc1NC(=O)c1cccc2nccnc12,–,"inconclusive [inhibitor, full curve]"
COc1cccc(CN(C)C(=O)c2cccc(S(=O)(=O)N3CCN(c4ccccc4)CC3)c2)c1OC,–,active: 7.08 µM
CCOCCCNC(=S)N1CCCN(c2nc3cc(C)c(C)cc3cc2C#N)CC1,–,"inconclusive [inhibitor, partial curve]"
c1ccc2c(CSc3ncnc4nc[nH]c34)cccc2c1,–,"inconclusive [inhibitor, single point]"
COc1cc(OC)c(OC)cc1CNC(=O)c1cc(=O)c2ccccc2o1,–,"inconclusive [inhibitor, single point]"
COc1ccc(-c2cn3cccnc3n2)cc1NC(=O)c1ccc(Br)o1,–,active: 11.2 µM
COc1ccc(OC)c(CN2CCN(C(=O)CNC(=O)c3ccccc3F)CC2)c1,inactive: -9.08%,–
Cc1ccc(-c2nnc(SCC(=O)N3CCOCC3)nc2-c2ccc(C)cc2)cc1,inactive: -12.1%,–
O=C(O)c1cc(N=Nc2c(O)[nH]c3ccc([N+](=O)[O-])cc23)ccc1Cl,inactive: 8.41%,–
COc1cccc(C(=O)NC2CCN(C(=O)N3c4ccccc4Sc4ccccc43)CC2)c1,–,"inconclusive [inhibitor, single point]"
CC1CCCC(NC(=O)CCNS(=O)(=O)c2ccc(Br)cc2)C1C (configuration not stated),–,"inconclusive [inhibitor, single point]"
O=c1cc(-c2ccc([N+](=O)[O-])cc2)c2ccc(O)cc2o1,–,"inconclusive [inhibitor, single point]"
CC1(C)Cc2c(C#N)c(SCCOc3ccccc3)nc(N3CCOCC3)c2CO1,–,"inconclusive [inhibitor, partial curve]"
COc1ccc(CNC(=O)C[C@H]2C(=O)N(Cc3ccc(OC)cc3)C[C@@H]2Cc2ccccc2)cc1,–,"inconclusive [inhibitor, single point]"
Cc1cccc2c(-c3ccccc3)cc(=O)[nH]c12,inactive: -2.89%,–
Cc1ccccc1-c1nn(-c2ccc(F)cc2F)cc1CNCCCN(C)C,–,active: 3.16 µM
